Source: the supplement of paper PMC3334620
Whole data set: some 33,000 sequences, median “E-score (-0.5 to 0.5)” near -0.043, cut for the highest 2% near 0.37. This is one part of the list.

Biological target: T1, Upc2 (UniProt Q12151)
T1 sequence: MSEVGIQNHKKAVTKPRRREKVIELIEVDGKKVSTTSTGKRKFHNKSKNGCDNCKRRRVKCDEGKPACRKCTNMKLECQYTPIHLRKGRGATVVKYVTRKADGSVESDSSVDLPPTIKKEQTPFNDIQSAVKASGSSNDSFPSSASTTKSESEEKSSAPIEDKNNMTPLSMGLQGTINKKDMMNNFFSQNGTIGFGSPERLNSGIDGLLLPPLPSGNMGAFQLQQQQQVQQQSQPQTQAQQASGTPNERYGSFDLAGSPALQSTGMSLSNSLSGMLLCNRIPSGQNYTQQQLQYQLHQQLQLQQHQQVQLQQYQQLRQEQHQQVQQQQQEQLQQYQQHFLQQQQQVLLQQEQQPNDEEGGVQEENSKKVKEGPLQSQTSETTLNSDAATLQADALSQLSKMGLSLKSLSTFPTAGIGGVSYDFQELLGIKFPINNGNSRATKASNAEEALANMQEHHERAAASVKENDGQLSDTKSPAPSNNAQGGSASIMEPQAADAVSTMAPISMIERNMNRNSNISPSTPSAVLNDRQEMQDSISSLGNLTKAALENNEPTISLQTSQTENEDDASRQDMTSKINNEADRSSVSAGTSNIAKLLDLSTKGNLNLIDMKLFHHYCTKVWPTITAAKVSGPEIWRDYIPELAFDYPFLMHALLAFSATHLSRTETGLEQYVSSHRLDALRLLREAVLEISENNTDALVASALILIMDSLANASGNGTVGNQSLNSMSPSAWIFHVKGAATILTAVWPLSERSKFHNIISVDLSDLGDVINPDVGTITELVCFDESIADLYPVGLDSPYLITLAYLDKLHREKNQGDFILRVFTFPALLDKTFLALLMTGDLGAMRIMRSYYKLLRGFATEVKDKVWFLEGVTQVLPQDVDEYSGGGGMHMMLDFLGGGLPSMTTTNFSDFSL
Experiment: PBM E-score (8-mer binding enrichment) (E-score (-0.5 to 0.5)); higher = stronger / more preferred TF binding; most listed sequences are background and not binding sites
Settings: protein concentration: 200 nM; construct: GST-full length
Protocol: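 Universal 'all 10-mer' protein binding microarrays (Agilent AMADID 015681) probed with GST-tagged S. cerevisiae TFs (full-length or DBD) made by in vitro transcription/translation (PURExpress), about 100-200 nM. Bound TF was detected with fluorescent anti-GST. Each ungapped 8-mer (which stands for itself and its reverse complement) is scored by the PBM enrichment score (E-score), a modified Wilcoxon-Mann-Whitney statistic from -0.5 to +0.5, computed with the Universal PBM Analysis Suite. Scale: above 0.35 generally sequence-specific binding.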

Point of comparison: CGACTGCA, “PBM E-score” value 0.0711. Against it:
- ACCAAGCG — lower, 0.0196
- CCGATCAA — lower, -0.117
- GGATGAAC — lower, -0.00945
- AGTAACAC — lower, 0.0459
- CTCGGGAA — higher, 0.14
- CTAGCGCA — lower, -0.22
- CCAGACTA — lower, -0.0755
- TACATGTA — lower, 0.0359
- CCCCCCAC — lower, -0.4
- CCAATTAG — lower, -0.17
- ATGGGACC — lower, -0.147
- CAGGGAGC — lower, -0.0143
- CATAACTA — lower, -0.108
- GAGGAGAA — lower, -0.0379
- CGGGTACG — higher, 0.43
- CTTAGCCA — lower, -0.194
- CTCAGTGC — lower, -0.0436
- CAGAGCTA — lower, -0.34
- AAAAGATT — lower, -0.0277
- CGCACAAG — higher, 0.12
- GGTGCCTA — lower, -0.1
- CAATACAA — lower, 0.00139
- CACATTTC — lower, 0.0463
- AGTGACTA — lower, -0.0222
- ACAGATGC — lower, -0.00973
- AACCGACT — higher, 0.23
- AACAAACC — lower, 0.00819
- CGCCGCGA — lower, -0.0263
- GTTAACTA — higher, 0.157
- CGTCCCAA — lower, -0.118
- CTCACCCC — lower, -0.202
- CATCTCCC — lower, -0.216
- AGGCCATG — lower, -0.0826
- GCAAAAAC — lower, -0.0354
- CTCAAGAC — lower, -0.263
- ACCTATAG — lower, -0.365
- TCAGTAAA — higher, 0.131
- CCTCATAC — higher, 0.126
- AAGGCGAG — lower, -0.047
- GTTGAAAA — lower, -0.00956
- ATGGCCAC — lower, -0.178
- TAAGAGGA — higher, 0.103
- ATGAAAAT — higher, 0.16
- CAGTTCAG — lower, -0.0915
- AAAATTAC — higher, 0.181
- CTGTAAGA — lower, -0.0404
- CCGTCTAA — lower, -0.103
- ACCGTGTA — higher, 0.0957
- CAATCCAC — lower, -0.232
- TAAGCTGA — lower, -0.0574
- AACCGGTA — lower, 0.00906
- TAACCTAA — lower, -0.042
- CTGAAGAA — lower, -0.299
- CTCACCAC — lower, -0.289
- GAATTGGC — lower, -0.0494
- ATAAACAT — higher, 0.0871
- GTATGCAA — higher, 0.124
- CTCTAGAA — lower, -0.256
- GGGAGAGA — lower, -0.266
- AGCTTTAG — lower, -0.129
- CCTTGGGC — lower, -0.187
- TCATATAA — lower, -0.158
- TAAATTCA — higher, 0.153
- CCACCAGA — lower, -0.0981
- GTACATCA — higher, 0.148
- ATCGAATA — higher, 0.211
- AGCTGCCT — lower, -0.262
- CGACGTAC — higher, 0.343
- CGTAGACG — higher, 0.262
- CGCCCTAC — lower, -0.157
- AACAACTC — lower, -0.155
- GCGTGTAA — lower, -0.0726
- ACGGTCCG — higher, 0.101
- GGGCACAA — lower, -0.196
- GTCGAAGA — lower, -0.221
- CGTGCAAA — lower, -0.0116
- GGCAAACA — lower, -0.0967
- CCAGATCC — lower, -0.308
- CCCATTAG — lower, -0.184
- ATATGAGA — lower, -0.0431
- ACTAATTG — lower, -0.205
- ACGTCGAG — lower, 0.00439
- GAACGTGC — lower, -0.0573
- GAGAGTGC — lower, -0.00591
- GAGAAGGA — lower, -0.13
